The whole screen tested about 150,000 compounds, of which about 540 (0.36%) showed an effect of 50% or more. The list shows a part of the results.

This experiment has as its system Plasmodium falciparum. The experiment in a line: Primary screen in NF54 nanoGlo assay, in single point, at 2uM, 72h; a lower Z score goes with more inhibition. As to conditions: timepoint 72 hour. The experiment is classed as functional, Erythrocyte.
Regarding `O=C1C[C@H](Nc2ccc(N3CCOCC3)cc2)C(=O)N1`, the % Inhibition (usually the drop in the measured response relative to a control, in per cent) is recorded as -16% and the Z score is 1.97.
For the compound `O=C(c1ccc(F)c(Cl)c1)N1CC2CC1CO2` (configuration not stated), the “% Inhibition” value is on record as -18% and the Z score is listed as 2.09.
The matching figures for `Cn1nc(C2CCC2)cc1NC(=O)C1CC2C=CC1C2` (configuration not stated): -6% and 0.99.
For `CCN(CC)S(=O)(=O)c1cc2c(cc1N1CCCC1)Oc1ccccc1NC2=O` the same measures were -14% and 2.01.
For `O=C(NCCc1cnn(-c2ccccc2)c1)c1cncc(Br)c1` the same measures were -2% and 0.47.
For the compound `O=C1NCCN(C(=O)NC2CCc3cn[nH]c3C2)C1c1ccccc1` (configuration not stated), the “% Inhibition” value stood at 12% and the Z score is on record as -1.51.
The matching figures for `O=C(Cn1cc(-c2ccccc2)c2ncn(C3CC3)c(=O)c21)Nc1ccc(Cl)cc1F`: 7% and -1.06.
For `O=C(Nc1nc(-c2ccc(Br)cc2)cs1)C1CCCC1` the same measures were -4% and 0.49.
For `Cc1cc2cc(C(=O)N3CCS(=O)(=O)C[C@@H]3C)oc2cc1C` the same measures were 5% and -0.97.
For `CCn1ncc(CNc2ncc(C)cc2Br)n1`, the “% Inhibition” value is reported as -7% and the Z score was 0.74.
Regarding `CC(=O)N1CC[C@H](NCC2(C)OCCO2)c2ccc(F)cc2C1`, the “% Inhibition” value was -13% and the Z score amounted to 1.42.
For `CN(Cc1ccccc1)C(=O)[C@H]1CCCN(c2ncnc3c2nc2n3CCCCC2)C1` the same measures were -9% and 1.46.
For `CC(=O)N1CCC(C(=O)Nc2cc(C(F)(F)F)c[nH]c2=O)CC1` the same measures were -7% and 1.06.
Regarding `CC(NC(=O)c1ccc2ncsc2c1)C1CCCO1` (configuration not stated), the “% Inhibition” value is -5% and the Z score worked out at 0.63.
As for `O=C(Cc1noc2ccccc12)N[C@H]1CCCCNC1=O`, the “% Inhibition” value was -11% and the Z score worked out at 1.7.
The matching figures for `O=C(Cc1ccc(O)cc1)N1CCC(n2ccnn2)CC1`: -8% and 1.45.
For `COCC(=O)NC[C@@H](c1ccco1)n1cccn1` the same measures were 2% and -0.26.
For `CC(C)(C)c1ccc(S(=O)(=O)N2CCC(C(=O)NCc3cscn3)CC2)cc1` the same measures were -9% and 1.54.
As to `NC(=O)c1ccc(CC(=O)N2CC3(CC3)Oc3ccccc32)cc1`, the “% Inhibition” value is given as -4% and the Z score was determined as 0.7.
For `COc1ccc(CNC(=O)c2nc3cccnc3n(C)c2=O)cc1` the same measures were -5% and 0.51.
The matching figures for `CCC(NC(=O)N1CCC(OCC(C)C)C1)c1nccs1` (configuration not stated): -21% and 2.52.
On to `COc1ccnc(Cn2c(C)cc(=O)cc2O)c1OC`, for which the “% Inhibition” value is -9% and the Z score was 1.62.
The matching figures for `CCCc1noc(CN(C)C(=O)NCCc2noc(CO)n2)n1`: 1% and -0.28.
The matching figures for `C=CCN(C)C(=O)c1cnc(CC)nc1`: -8% and 0.79.
As to `O=C1OCCC1N1CCCC(c2ccn[nH]2)C1` (configuration not stated), the “% Inhibition” value was -3% and the Z score is recorded as 0.43.
As for `CCOc1ccc(NC(=O)Cc2c(O)nc3ccccc3c2O)cc1`, the “% Inhibition” value is reported as -9% and the Z score is 1.39.
Consider `O=C(Cc1ccsc1)N1CCO[C@H](C(=O)N2CCC(F)(F)CC2)C1`, for which the “% Inhibition” value is given as -9% and the Z score worked out at 1.05.
For `C[C@](O)(CCc1ccccc1)CNC(=O)COc1ccc(Cl)cc1` the same measures were -3% and 0.43.
For the compound `CC(C)OCCNC(=O)NC[C@H]1CCN(C)c2ccccc21`, the “% Inhibition” value is recorded as -6% and the Z score was determined as 0.64.
For `CC(C)n1nc(C(=O)N2CCCCC2)c2c1CCOC2` the same measures were -10% and 1.29.
The matching figures for `Cc1cccc(NC(=O)C(F)(F)F)c1`: -6% and 0.8.
In the case of `Cc1ccc2c(c1)CCCN2C(=O)c1cnc2onc(C)c2c1`, the “% Inhibition” value came out at 10% and the Z score is given as -1.66.
Consider `Cc1[nH]ccc(=O)c1OCC(=O)Nc1ccccc1F`, for which the “% Inhibition” value was -4% and the Z score is 0.56.
For `Cc1csc2nc(CC(=O)Nc3ccnn3[C@H]3CCCOC3)cn12` the same measures were -7% and 1.34.
As to `Cn1c(CN2CCC(Cc3ccccc3)CC2)cc(=O)n(C)c1=O`, the “% Inhibition” value is -8% and the Z score is 0.69.
For `CCOc1ncccc1[C@H](C(=O)O)N1CCC(N2CCCCC2)CC1` the same measures were 2% and -0.31.
Take `CCc1nnc(CNC(c2ccccc2)C2CCCc3ccccc32)o1` (configuration not stated): the “% Inhibition” value came out at 6% and the Z score is given as -0.85.
For `CC(C)CN(CC(=O)N1CCCN(c2ccc(-c3ccccc3)nn2)CC1)C(=O)C1CCC1` the same measures were 1% and -0.09.
The matching figures for `Cc1cccc(N(C)Cc2ccc(C(=O)N(C)C)[nH]2)c1`: -2% and 0.38.
The matching figures for `O=C(c1cc2n(n1)CCCO2)N1CCC2C1C2C(F)(F)F` (configuration not stated): -16% and 2.66.
Turning to `CCOC(=O)CN(CCOC)CC(=O)NCc1cccc(Cl)c1`, the “% Inhibition” value was -10% and the Z score came to 1.25.
Turning to `CCCS(=O)(=O)N1CCC2(CC1)N[C@@H](Cc1ccccc1)C(=O)N2CC1CC1`, the “% Inhibition” value is on record as -8% and the Z score was 1.19.
The matching figures for `Cc1cc(C(=O)N(c2ccc(O)cc2)S(=O)(=O)c2ccccc2)cc(O)n1`: -3% and 0.6.
The matching figures for `Cc1nc(-c2cccc(NC(=O)c3nnn(-c4ccc(F)cc4)n3)c2)cs1`: -12% and 2.26.
The matching figures for `Cn1nc(-c2cnccn2)cc1CNC(=O)c1cccn(C)c1=O`: 25% and -3.22.
As for `CC(C)(C)c1ccc2c(NC(=O)Cc3ccccc3C(=O)O)n[nH]c2n1`, the “% Inhibition” value is -13% and the Z score worked out at 2.58.
Regarding `C[C@H](NC(=O)c1ccc(COc2ccc(Cl)cc2)cc1)c1ccccc1`, the “% Inhibition” value was -2% and the Z score is 0.34.
For the compound `Cc1noc(C)c1CN(C)C(=O)CCS(=O)(=O)C1CCCC1`, the “% Inhibition” value is reported as -8% and the Z score turned out to be 0.99.
Turning to `O=S(=O)([O-])CCCn1cnc2ncc3c([n+]21)/C(=C/c1ccccc1)CCC3`, the “% Inhibition” value is -7% and the Z score was 1.27.
On to `Cc1cc(Oc2nc(N3CCCCC3)nc3c2CN(S(=O)(=O)c2ccccc2)CC3)ccc1F`, for which the “% Inhibition” value was -14% and the Z score is recorded as 1.93.
Consider `NC(=O)CC[C@H]1CCCN(C(=O)N2CCc3ccccc32)C1`, for which the “% Inhibition” value is reported as -2% and the Z score stood at 0.2.
The matching figures for `CC[C@H](C)NS(=O)(=O)c1cc(-c2cc(C)no2)sc1C`: 8% and -1.52.
The matching figures for `COCc1nc2ccccc2c(C)c1C(=O)OCc1csc(CC(=O)Nc2ccccc2C)n1`: -10% and 1.48.
For the compound `CC(Cc1cccc(F)c1)C(=O)N1CCC2(CCOCC2)C1C` (configuration not stated), the “% Inhibition” value is reported as -6% and the Z score was found to be 0.92.
Turning to `CCCCN(CC)C(=O)c1c(Cl)ccc(S(=O)(=O)CCOC)c1Cl`, the “% Inhibition” value is recorded as -7% and the Z score stood at 1.07.
Consider `CS(=O)(=O)N1CCC(OC2CCN(C(=O)Nc3ccc(F)cc3F)CC2)CC1`, for which the “% Inhibition” value is given as -10% and the Z score is recorded as 1.24.

The record behind these values is ChEMBL document CHEMBL4888484, “Replenishing the malaria drug discovery pipeline: Screening and hit evaluation of the MMV Hit Generation Library 1 (HGL1) against asexual blood stage Plasmodium falciparum ,using a nano luciferase reporter read-out” (2022).
